Some of the results follow. The list includes weakly bound sequences.
Target: T1, MBP-FoxP3dN (UniProt Q99JB6)
T1 sequence: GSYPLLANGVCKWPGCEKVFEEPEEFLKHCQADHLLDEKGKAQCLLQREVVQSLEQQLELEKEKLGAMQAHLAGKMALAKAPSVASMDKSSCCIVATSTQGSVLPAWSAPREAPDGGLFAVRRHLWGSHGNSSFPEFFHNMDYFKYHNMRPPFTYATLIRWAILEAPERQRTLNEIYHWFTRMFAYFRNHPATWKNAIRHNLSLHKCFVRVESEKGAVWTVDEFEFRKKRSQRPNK
Test: PD-seq (MBP pull-down with sequencing)
Conditions: 20 mM Tris-HCl pH 7.5, 100 mM NaCl, 1.5 mM MgCl2, 0.4 uM protein, 0.1 uM dsDNA library, 30 min, room temperature, amylose pull-down; high values mean tight binding; double strand, one strand shown

Sequence	binding signal (RPM ratio (pull-down/input))
GATGATTGTTCTCCCAGCTGATGAATTTACATGTTCGAGTAAACAAATTTTCCTAATCTTTCTGTTCAAGCGCCATCTAC	0.896
GATGATTGTTCTCCCAGCTGATGAATTAACAATATCGAGTAAACAAATTTTCCTAATCTTTCTGTTCAAGCGCCATCTAC	0.975
GATGATTGTTCTCCCAGCTGATGAATTCCTAGGTTCGAGTAAACAAATTTTCCTAATCTTTCTGTTCAAGCGCCATCTAC	0.195
GATGATTGTTCTCCCAGCTGATGAATTCAGTGGCTCGAGTAAACAAATTTTCCTAATCTTTCTGTTCAAGCGCCATCTAC	0.688
GATGATTGTTCTCCCAGCTGATGAATTATGGTTTTCGAGTAAACAAATTTTCCTAATCTTTCTGTTCAAGCGCCATCTAC	1.24
GATGATTGTTCTCCCAGCTGATGAATTCATTACCTCGAGTAAACAAATTTTCCTAATCTTTCTGTTCAAGCGCCATCTAC	0.518
GATGATTGTTCTCCCAGCTGATGAATTGGAGACTTCGAGTAAACAAATTTTCCTAATCTTTCTGTTCAAGCGCCATCTAC	0.389
GATGATTGTTCTCCCAGCTGATGAATTAAAGAACTCGAGTAAACAAATTTTCCTAATCTTTCTGTTCAAGCGCCATCTAC	0.221
GATGATTGTTCTCCCAGCTGATGAATTATCTCAATCGAGTAAACAAATTTTCCTAATCTTTCTGTTCAAGCGCCATCTAC	0.287
GATGATTGTTCTCCCAGCTGATGAATTCGATTATTCGAGTAAACAAATTTTCCTAATCTTTCTGTTCAAGCGCCATCTAC	2.64
GATGATTGTTCTCCCAGCTGATGAATTACCATGCTCGAGTAAACAAATTTTCCTAATCTTTCTGTTCAAGCGCCATCTAC	0.582
GATGATTGTTCTCCCAGCTGATGAATTGCCCCTGTCGAGTAAACAAATTTTCCTAATCTTTCTGTTCAAGCGCCATCTAC	0.431
GATGATTGTTCTCCCAGCTGATGAATTTAATATTTCGAGTAAACAAATTTTCCTAATCTTTCTGTTCAAGCGCCATCTAC	2.73
GATGATTGTTCTCCCAGCTGATGAATTCTAGCTTTCGAGTAAACAAATTTTCCTAATCTTTCTGTTCAAGCGCCATCTAC	0.968
GATGATTGTTCTCCCAGCTGATGAATTGTAAGAATCGAGTAAACAAATTTTCCTAATCTTTCTGTTCAAGCGCCATCTAC	0.258
GATGATTGTTCTCCCAGCTGATGAATTTCTGGTGTCGAGTAAACAAATTTTCCTAATCTTTCTGTTCAAGCGCCATCTAC	0.353
GATGATTGTTCTCCCAGCTGATGAATTGAGACCATCGAGTAAACAAATTTTCCTAATCTTTCTGTTCAAGCGCCATCTAC	0.502
GATGATTGTTCTCCCAGCTGATGAATTTGTGAAGTCGAGTAAACAAATTTTCCTAATCTTTCTGTTCAAGCGCCATCTAC	0.543
GATGATTGTTCTCCCAGCTGATGAATTTTGCGTTTCGAGTAAACAAATTTTCCTAATCTTTCTGTTCAAGCGCCATCTAC	4.87
GATGATTGTTCTCCCAGCTGATGAATTCCTTAAGTCGAGTAAACAAATTTTCCTAATCTTTCTGTTCAAGCGCCATCTAC	0.171
GATGATTGTTCTCCCAGCTGATGAATTTACAGTATCGAGTAAACAAATTTTCCTAATCTTTCTGTTCAAGCGCCATCTAC	0.933

Sequence	binding signal (RPM ratio (pull-down/input))
GATGATTGTTCTCCCAGCTGATGAATTCTCTCTCTCGAGTAAACAAATTTTCCTAATCTTTCTGTTCAAGCGCCATCTAC	0.214
GATGATTGTTCTCCCAGCTGATGAATTACGGACTTCGAGTAAACAAATTTTCCTAATCTTTCTGTTCAAGCGCCATCTAC	0.479
GATGATTGTTCTCCCAGCTGATGAATTTTGTCAGTCGAGTAAACAAATTTTCCTAATCTTTCTGTTCAAGCGCCATCTAC	1.24
GATGATTGTTCTCCCAGCTGATGAATTACCTGCCTCGAGTAAACAAATTTTCCTAATCTTTCTGTTCAAGCGCCATCTAC	0.476
GATGATTGTTCTCCCAGCTGATGAATTGACCCATTCGAGTAAACAAATTTTCCTAATCTTTCTGTTCAAGCGCCATCTAC	0.395
GATGATTGTTCTCCCAGCTGATGAATTGGAGACATCGAGTAAACAAATTTTCCTAATCTTTCTGTTCAAGCGCCATCTAC	0.404
GATGATTGTTCTCCCAGCTGATGAATTAACTAATTCGAGTAAACAAATTTTCCTAATCTTTCTGTTCAAGCGCCATCTAC	0.313
GATGATTGTTCTCCCAGCTGATGAATTCTGGCTCTCGAGTAAACAAATTTTCCTAATCTTTCTGTTCAAGCGCCATCTAC	0.376
GATGATTGTTCTCCCAGCTGATGAATTTATTAGGTCGAGTAAACAAATTTTCCTAATCTTTCTGTTCAAGCGCCATCTAC	3.09
GATGATTGTTCTCCCAGCTGATGAATTTGTCCAGTCGAGTAAACAAATTTTCCTAATCTTTCTGTTCAAGCGCCATCTAC	1.11
GATGATTGTTCTCCCAGCTGATGAATTGAGGCGCTCGAGTAAACAAATTTTCCTAATCTTTCTGTTCAAGCGCCATCTAC	1.4
GATGATTGTTCTCCCAGCTGATGAATTCATTTCGTCGAGTAAACAAATTTTCCTAATCTTTCTGTTCAAGCGCCATCTAC	0.76
GATGATTGTTCTCCCAGCTGATGAATTCGGGGGTTCGAGTAAACAAATTTTCCTAATCTTTCTGTTCAAGCGCCATCTAC	0.512
GATGATTGTTCTCCCAGCTGATGAATTCTGCTAGTCGAGTAAACAAATTTTCCTAATCTTTCTGTTCAAGCGCCATCTAC	1.96
GATGATTGTTCTCCCAGCTGATGAATTATGTGTGTCGAGTAAACAAATTTTCCTAATCTTTCTGTTCAAGCGCCATCTAC	4.56
GATGATTGTTCTCCCAGCTGATGAATTTTACCTCTCGAGTAAACAAATTTTCCTAATCTTTCTGTTCAAGCGCCATCTAC	0.398
GATGATTGTTCTCCCAGCTGATGAATTGCGTGGGTCGAGTAAACAAATTTTCCTAATCTTTCTGTTCAAGCGCCATCTAC	1.6
GATGATTGTTCTCCCAGCTGATGAATTGGATGACTCGAGTAAACAAATTTTCCTAATCTTTCTGTTCAAGCGCCATCTAC	0.768
GATGATTGTTCTCCCAGCTGATGAATTCGGGCTTTCGAGTAAACAAATTTTCCTAATCTTTCTGTTCAAGCGCCATCTAC	0.755
GATGATTGTTCTCCCAGCTGATGAATTTATCCTGTCGAGTAAACAAATTTTCCTAATCTTTCTGTTCAAGCGCCATCTAC	0.868
GATGATTGTTCTCCCAGCTGATGAATTAAAGATTTCGAGTAAACAAATTTTCCTAATCTTTCTGTTCAAGCGCCATCTAC	0.287

Sequence	binding signal (RPM ratio (pull-down/input))
GATGATTGTTCTCCCAGCTGATGAATTTGCATACTCGAGTAAACAAATTTTCCTAATCTTTCTGTTCAAGCGCCATCTAC	3.73
GATGATTGTTCTCCCAGCTGATGAATTAGGCGGGTCGAGTAAACAAATTTTCCTAATCTTTCTGTTCAAGCGCCATCTAC	0.629
GATGATTGTTCTCCCAGCTGATGAATTTTATGTATCGAGTAAACAAATTTTCCTAATCTTTCTGTTCAAGCGCCATCTAC	3.53
GATGATTGTTCTCCCAGCTGATGAATTGTTCCTGTCGAGTAAACAAATTTTCCTAATCTTTCTGTTCAAGCGCCATCTAC	0.351
GATGATTGTTCTCCCAGCTGATGAATTGAAAGCTTCGAGTAAACAAATTTTCCTAATCTTTCTGTTCAAGCGCCATCTAC	0.298
GATGATTGTTCTCCCAGCTGATGAATTCGAGAGATCGAGTAAACAAATTTTCCTAATCTTTCTGTTCAAGCGCCATCTAC	0.216
GATGATTGTTCTCCCAGCTGATGAATTTCGACTTTCGAGTAAACAAATTTTCCTAATCTTTCTGTTCAAGCGCCATCTAC	1.42
GATGATTGTTCTCCCAGCTGATGAATTCTGATCATCGAGTAAACAAATTTTCCTAATCTTTCTGTTCAAGCGCCATCTAC	0.437
GATGATTGTTCTCCCAGCTGATGAATTTCAATTGTCGAGTAAACAAATTTTCCTAATCTTTCTGTTCAAGCGCCATCTAC	1.36
GATGATTGTTCTCCCAGCTGATGAATTATAGCCTTCGAGTAAACAAATTTTCCTAATCTTTCTGTTCAAGCGCCATCTAC	2.08
GATGATTGTTCTCCCAGCTGATGAATTGATCAGATCGAGTAAACAAATTTTCCTAATCTTTCTGTTCAAGCGCCATCTAC	0.224
GATGATTGTTCTCCCAGCTGATGAATTCTGTATGTCGAGTAAACAAATTTTCCTAATCTTTCTGTTCAAGCGCCATCTAC	4.95
GATGATTGTTCTCCCAGCTGATGAATTTGCGAATTCGAGTAAACAAATTTTCCTAATCTTTCTGTTCAAGCGCCATCTAC	1.18
GATGATTGTTCTCCCAGCTGATGAATTTAATTCGTCGAGTAAACAAATTTTCCTAATCTTTCTGTTCAAGCGCCATCTAC	0.849
GATGATTGTTCTCCCAGCTGATGAATTAGTCCTGTCGAGTAAACAAATTTTCCTAATCTTTCTGTTCAAGCGCCATCTAC	0.536
GATGATTGTTCTCCCAGCTGATGAATTACTACTGTCGAGTAAACAAATTTTCCTAATCTTTCTGTTCAAGCGCCATCTAC	0.433
GATGATTGTTCTCCCAGCTGATGAATTGTTTATATCGAGTAAACAAATTTTCCTAATCTTTCTGTTCAAGCGCCATCTAC	5.7
GATGATTGTTCTCCCAGCTGATGAATTATATGGATCGAGTAAACAAATTTTCCTAATCTTTCTGTTCAAGCGCCATCTAC	0.524
GATGATTGTTCTCCCAGCTGATGAATTGTGAACATCGAGTAAACAAATTTTCCTAATCTTTCTGTTCAAGCGCCATCTAC	0.86
GATGATTGTTCTCCCAGCTGATGAATTTGGTGTCTCGAGTAAACAAATTTTCCTAATCTTTCTGTTCAAGCGCCATCTAC	3.42
GATGATTGTTCTCCCAGCTGATGAATTTCGGTGATCGAGTAAACAAATTTTCCTAATCTTTCTGTTCAAGCGCCATCTAC	0.581

Source: paper PMC12820563
